Experimental data from PMC10668032.
Some of the results follow. At the low end of the ranking the order means little.

The sequences below were run against SIX1-Q177R homeodomain (UniProt Q15475) (assay: universal protein binding microarray). Details: Universal all-10-mer PBM (8x60K, AMADID 030236), 300 nM GST-tagged protein, Alexa Fluor 488 anti-GST; buffer, salt, pH and temperature not stated; high values mean tight binding; most listed sequences are background and not binding sites; double strand, one strand shown.

| Sequence | binding signal [E-score] |
| --- | --- |
| CGCGCCCC | 0.0252 |
| ACGTGTGA | 0.293 |
| CTCCTCTC | -0.0811 |
| ACCTACTC | 0.0711 |
| GACCTTAA | -0.155 |
| GGCTTTCA | -0.134 |
| AATTCTCA | -0.136 |
| GCCTAACA | 0.101 |
| CGTACAAG | -0.101 |
| CTAGATTC | -0.162 |
| CTTCTACA | 0.161 |
| AGGGCGGA | -0.168 |
| CTTTGTCC | -0.117 |
| CGCGCTAG | 0.0356 |
| TATAACCA | -0.0751 |
| CATGTCTC | -0.097 |
| CAATCATC | -0.195 |
| ACTATAAG | 0.0555 |
| GAGTTCGC | 0.0321 |
| GGTGAGAC | -0.0183 |
| GACAGGGA | -0.132 |
| TGGCTAAA | -0.179 |
| GGAGTAAA | 0.222 |
| GGAACGGA | -0.172 |
| AAGTTAGC | -0.225 |

| Sequence | binding signal [E-score] |
| --- | --- |
| ACGATTTA | -0.0812 |
| AGTTTCCC | -0.0788 |
| GCCCCTTA | -0.00974 |
| TCCTGAGA | -0.213 |
| AAACTACC | -0.0394 |
| AATAATTA | -0.0787 |
| CTAGGTAC | 0.0616 |
| TAGGAAGA | -0.141 |
| ATCTTTAC | 0.0524 |
| AGAAACGC | -0.0464 |
| CACACTAC | 0.297 |
| AAGAAGGT | 0.18 |
| GGGTAGCA | 0.113 |
| AGTACGTG | 0.0713 |
| GGAGACCA | -0.106 |
| ATTTAAAG | -0.175 |
| ATCACCGG | 0.0516 |
| ACACTAAG | 0.337 |
| CAAATCGA | -0.21 |
| CGGTACGA | 0.0387 |
| ACTCCAAT | 0.0604 |
| GATGTACA | 0.14 |
| AAGCGATG | -0.373 |
| ATCTCTAA | -0.158 |
| GAACAAGA | 0.0214 |

| Sequence | binding signal [E-score] |
| --- | --- |
| CACTCATG | 0.244 |
| ATCCAAGG | -0.113 |
| ACCAGTAG | 0.0521 |
| AAGATTCG | -0.108 |
| ATGTGAAA | -0.211 |
| ACTGCTCC | 0.0303 |
| AGAAATCG | -0.357 |
| AGAAGTTG | -0.277 |
| AGCGCAGA | 0.0112 |
| ACTCATAA | -0.115 |
| AAACCGCG | -0.0493 |
| AGCAGGGG | 0.0202 |
| AGGTTTGA | -0.137 |
| GGGATCGA | 0.257 |
| AAGAGGTG | 0.368 |
| AACGACGG | 0.0401 |
| AAACCTCT | -0.00611 |
| TCTCGAGA | 0.00777 |
| CCGCGACA | 0.241 |
| CGACGCCC | 0.147 |
| GACAAATC | -0.248 |
| CAAGGTTC | -0.00231 |
| CGCGGGCA | 0.276 |
| AAGAGCCC | -0.295 |
| CCTTACCG | -0.0755 |

| Sequence | binding signal [E-score] |
| --- | --- |
| CACCGATG | 0.32 |
| ACCCATGC | 0.0227 |
| GATCGTAC | -0.0272 |
| CATTAATC | -0.0681 |
| ACTGTCGC | -0.123 |
| CGACCCCC | 0.256 |
| TGCTTCCA | -0.0762 |
| AGCTCAAG | -0.213 |
| CGAACAAC | 0.0166 |
| CTGAACTA | -0.0392 |
| TTCAAAAA | -0.0897 |
| ACCCTCGG | 0.2 |
| CGTCATGA | 0.0519 |
| ATTCCTCC | -0.0788 |
| GAGTTGGA | -0.2 |
| CGTGCGAC | 0.13 |
| CGGTCTAC | -0.0459 |
| AAGGACAT | -0.0586 |
| GGCTGTAA | -0.15 |
| GTAAGAGA | -0.118 |
| CCCTGCGG | 0.122 |
| ACGGCTAG | -0.0855 |
| GAGTATAC | 0.157 |
| CGGAGAGA | -0.0416 |
| CCCAACGG | 0.00412 |

| Sequence | binding signal [E-score] |
| --- | --- |
| CTGCCTTC | -0.319 |
| AGTCGAAT | -0.128 |
| AACTATCA | -0.187 |
| ACAAGGTC | 0.218 |
| GATAGCAC | 0.0149 |
| CTCCTTTA | -0.0813 |
| GACTAACA | 0.024 |
| GAGTCCAC | 0.135 |
| ATTTGGCA | -0.2 |
| AATCCACA | 0.155 |
| AAACTGGT | 0.203 |
| AATCCGAC | -0.0596 |
| ACCGTTGG | 0.216 |
| GTGGTAAC | -0.0465 |
| AGAAGCCT | -0.0357 |
| AGCGCAAG | -0.186 |
| AGTAATAC | -0.0229 |
| GATTTTTA | -0.161 |
| CACTCTGC | 0.187 |
| ACCCATAG | 0.109 |
| CAGTGCGG | -0.0162 |
| TAATGACA | 0.203 |
| CGTCCGAG | -0.0482 |
| ACCGTTAG | -0.128 |
| AAATCAAA | -0.105 |

| Sequence | binding signal [E-score] |
| --- | --- |
| AGACATAG | -0.247 |
| ATCCGGTA | 0.00298 |
| CCCTGGTA | 0.114 |
| CATATTTA | 0.00251 |
| CTTATATC | -0.15 |
| CATTTGAA | -0.142 |
| CCGCTTAC | 0.0928 |
| CACACCCC | 0.402 |
| ATGCAACC | 0.0134 |
| GAGGCTGA | -0.0996 |
| ATATCTGC | -0.0401 |
| ACATCTAC | -0.11 |
| CTTAGATC | 0.0643 |
| GGGGTACA | 0.329 |
| GCTGTATA | -0.0632 |
| ACCCAGCC | 0.0719 |
| CAGATAAC | 0.133 |
| GATTCCTA | -0.0841 |
| AGCTGCCT | -0.201 |
| GCGGTTAC | 0.0771 |
| CAGCTTCC | -0.225 |
| TCAGCTAA | -0.115 |
| AGAAGTCG | -0.0442 |
| GACCTTTA | -0.156 |
| AAACTCTA | -0.165 |

| Sequence | binding signal [E-score] |
| --- | --- |
| AAGAAACC | 0.0261 |
| CCGAGGGA | 0.109 |
| GCCGGCTA | -0.0263 |
| CGCGAGAC | 0.0227 |
| GGGACTCA | -0.237 |
| ATGGAGAA | -0.159 |
| CTTTACAA | -0.246 |
| ATGGGGTC | 0.241 |
| ACGCCCAA | 0.176 |
| ATTAGGGG | 0.15 |
| ATTGAAAC | -0.112 |
| ATCAACGA | -0.0938 |
| AGATACCT | 0.179 |
| ATGCCTAC | -0.0194 |
| AAAGGCTT | -0.349 |
| ATGAGTGC | -0.144 |
| GCTGAGCC | -0.194 |
| AGGCTCGG | -0.15 |
| ACACGGTC | 0.413 |
| AGTATGTG | 0.0648 |
| ACGTCAAG | 0.0569 |
| ATTAGGTA | -0.115 |
